# Target: Vif-A3G interaction (Human immunodeficiency virus type 1 group M subtype B, UniProt P12504)
# Conditions: 293T cells, 1250 nM, 40 h, co-immunoprecipitation
# Sequence of UniProt P12504 (P12504 whole entry): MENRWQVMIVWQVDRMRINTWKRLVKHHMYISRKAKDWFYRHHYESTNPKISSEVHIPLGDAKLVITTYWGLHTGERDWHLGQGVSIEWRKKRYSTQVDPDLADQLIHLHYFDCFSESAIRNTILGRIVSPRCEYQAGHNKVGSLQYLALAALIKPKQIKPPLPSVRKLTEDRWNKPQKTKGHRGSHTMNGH
structure (smiles),measurement,value
COc1cc(-c2ccc(Nc3ccccc3C(=O)O)c(OC)c2)ccc1Nc1ccccc1C(=O)O [redoxal],effect on Vif-A3G interaction in cells,did not reveal any significant effect

# From article PMC4567410 (Virology, 2015)
